# Data as given in patent US10988531B2, “Conjugates comprising cell-binding agents and cytotoxic agents” (ImmunoGen, Inc., priority 2014, dated 2021).
# B1: huMOV19-SeriMab-D8 (conjugate)
# heavy: SVQLVQSGAEVVKPGASVKISCKASGYTFTGYFMNWVKQSPGQSLEWIGRIHPYDGDTFYNQKFQGKATLTVDKSSNTAHMELLSLTSEDFAVYYCTRYDGSRAMDYWGQGTTVTVSS[human IgG1 constant region left out here]
# light: DIVLTQSPLSLAVSLGQPAIISCKASQSVSFAGTSLMHWYHQKPGQQPRLLIYRASNLEAGVPDRFSGSGSKTDFTLTISPVEAEDAATYYCQQSREYPYTFGGGTKLEIKRTVAAPSVFIFPPSDEQLKSGTASVVCLLNNFYPREAKVQWKVDNALQSGNSQESVTEQDSKDSTYSLSSTLTLSKADYEKHKVYACEVTHQGLSSPVTKSFNRGEC
# Columns and labels:
# KB cells = test: in vitro cytotoxicity (WST-8) on KB cells; assay type: cell-based; settings: KB cells
# Description: 100 μl/well of each ADC was diluted in RPMI-1640 (Life Technologies) supplemented with heat-inactivated 10% FBS (Life Technologies) and 0.1 mg/ml gentamycin (Life Technologies) in a 96-well plate (Corning, flat bottom) at starting concentrations of 3.5×10^−9 M to 3.5×10^−8 M in triplicate and serially diluted 3-fold in media above at ambient temperature. KB cells (buccal epithelial tumor), grown in EMEM (ATCC) supplemented with heat-inactivated 10% FBS (Life Technologies) and 0.1 mg/ml gentamycin (Life Technologies), were washed once in PBS and removed with 0.05% trypsin-EDTA (Life Technologies). Other cells tested were NCI-H2110 (NSCLC) and T47D (breast epithelial) grown in RPMI-1640 (LifeTechnologies) supplemented with heat-inactivated 10% FBS (Life Technologies) and 0.1 mg/ml gentamycin (Life Technologies). T47D media also was supplemented with 0.2 IU/ml bovine insulin. All cells were resuspended in growth media (see above) to neutralize trypsin and counted on a Coulter counter. […] Total volume is 200 μl/well. After incubation, cell viability was analyzed by addition of 20 μl/well WST-8 (Dojindo) and allowed to develop for 2 hr. Absorbance was read on a plate reader at 450 and 620 nm. Absorbances at 620 nm were subtracted from absorbances at 450 nm. Background in wells containing media only was further subtracted from corrected absorbances and surviving fraction (SF) of untreated cells was calculated in Excel. An XY graph of ADC concentration (M) vs. SF was created using Graph Pad Prism.
# In vitro potency of SeriMab-D8 conjugate (huMOV19-NTS#2-SeriMab-D8) was tested on KB cells (FIG. 26A), Ishikawa cells (human endometrial adenocarcinoma cells) (FIG. 26B), and HEC-1B cells (human endometrial adenocarcinoma cells) (FIG. 26C) using assay protocols similar to that described in Example 8.
# Ishikawa cells = test: in vitro potency on Ishikawa cells; assay type: cell-based, human
# Description: (§1) 100 μl/well of each ADC was diluted in RPMI-1640 (Life Technologies) supplemented with heat-inactivated 10% FBS (Life Technologies) and 0.1 mg/ml gentamycin (Life Technologies) in a 96-well plate (Corning, flat bottom) at starting concentrations of 3.5×10^−9 M to 3.5×10^−8 M in triplicate and serially diluted 3-fold in media above at ambient temperature. KB cells (buccal epithelial tumor), grown in EMEM (ATCC) supplemented with heat-inactivated 10% FBS (Life Technologies) and 0.1 mg/ml gentamycin (Life Technologies), were washed once in PBS and removed with 0.05% trypsin-EDTA (Life Technologies). Other cells tested were NCI-H2110 (NSCLC) and T47D (breast epithelial) grown in RPMI-1640 (LifeTechnologies) supplemented with heat-inactivated 10% FBS (Life Technologies) and 0.1 mg/ml gentamycin (Life Technologies). T47D media also was supplemented with 0.2 IU/ml bovine insulin. All cells were resuspended in growth media (see above) to neutralize trypsin and counted on a Coulter counter. […] After incubation, cell viability was analyzed by addition of 20 μl/well WST-8 (Dojindo) and allowed to develop for 2 hr. Absorbance was read on a plate reader at 450 and 620 nm. Absorbances at 620 nm were subtracted from absorbances at 450 nm. Background in wells containing media only was further subtracted from corrected absorbances and surviving fraction (SF) of untreated cells was calculated in Excel. […]
# HEC-1B cells = test: in vitro potency on HEC-1B cells; assay type: cell-based, human
# Description: as §1
# [1] = in vivo tolerability study in CD-1 mice; settings: female CD-1 mice, intravenous, 200 μg/kg (D8 drug dose)
# Description: Female CD-1 mice (7 weeks of age) were obtained from Charles River Laboratories.
# Mice were randomized into three groups by body weight. The body weights ranged from 25.6 to 24.1 grams with an average of 25 grams. […] Administration of all conjugates was carried out intravenously with a 1.0 ml syringe fitted with a 27 gauge, ½ inch needle. Individual body weights were measured at the indicated time points in FIG. 29 and the % change is graphed vs. time (days). Each line represents the body weight changes of one mouse. Animals that were moribund or experienced body weight loss >20% were sacrificed, as this is defined as an intolerable dose.
molecule,measurement,setting,value
B1,antigen-specific potency compared with lysine conjugate huMOV19-D2,KB cells,comparable antigen-specific potency
same,antigen-specific potency compared with lysine conjugate huMOV19-D2,Ishikawa cells,comparable antigen-specific potency
same,antigen-specific potency compared with lysine conjugate huMOV19-D2,HEC-1B cells,comparable antigen-specific potency
same,"tolerability, body weight loss over 2 weeks",[1],well tolerated
